# Hit rate of the full screen: of about 310,000 compounds, about 14,000 (4.5%) showed an effect of 50% or more. The effect is printed as a negative number. The list shows a part of the results.
# Molecular target: human ether-à-go-go-related gene (hERG) potassium channel (human, UniProt Q12809)
# Experiment: primary screen, population patch clamp on CHO cells stably expressing hERG
# 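Note: peak tail current of the secondary pulse compared with the same well before compound.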
# Sequence of human ether-à-go-go-related gene (hERG) potassium channel (Q12809 whole entry, looked up): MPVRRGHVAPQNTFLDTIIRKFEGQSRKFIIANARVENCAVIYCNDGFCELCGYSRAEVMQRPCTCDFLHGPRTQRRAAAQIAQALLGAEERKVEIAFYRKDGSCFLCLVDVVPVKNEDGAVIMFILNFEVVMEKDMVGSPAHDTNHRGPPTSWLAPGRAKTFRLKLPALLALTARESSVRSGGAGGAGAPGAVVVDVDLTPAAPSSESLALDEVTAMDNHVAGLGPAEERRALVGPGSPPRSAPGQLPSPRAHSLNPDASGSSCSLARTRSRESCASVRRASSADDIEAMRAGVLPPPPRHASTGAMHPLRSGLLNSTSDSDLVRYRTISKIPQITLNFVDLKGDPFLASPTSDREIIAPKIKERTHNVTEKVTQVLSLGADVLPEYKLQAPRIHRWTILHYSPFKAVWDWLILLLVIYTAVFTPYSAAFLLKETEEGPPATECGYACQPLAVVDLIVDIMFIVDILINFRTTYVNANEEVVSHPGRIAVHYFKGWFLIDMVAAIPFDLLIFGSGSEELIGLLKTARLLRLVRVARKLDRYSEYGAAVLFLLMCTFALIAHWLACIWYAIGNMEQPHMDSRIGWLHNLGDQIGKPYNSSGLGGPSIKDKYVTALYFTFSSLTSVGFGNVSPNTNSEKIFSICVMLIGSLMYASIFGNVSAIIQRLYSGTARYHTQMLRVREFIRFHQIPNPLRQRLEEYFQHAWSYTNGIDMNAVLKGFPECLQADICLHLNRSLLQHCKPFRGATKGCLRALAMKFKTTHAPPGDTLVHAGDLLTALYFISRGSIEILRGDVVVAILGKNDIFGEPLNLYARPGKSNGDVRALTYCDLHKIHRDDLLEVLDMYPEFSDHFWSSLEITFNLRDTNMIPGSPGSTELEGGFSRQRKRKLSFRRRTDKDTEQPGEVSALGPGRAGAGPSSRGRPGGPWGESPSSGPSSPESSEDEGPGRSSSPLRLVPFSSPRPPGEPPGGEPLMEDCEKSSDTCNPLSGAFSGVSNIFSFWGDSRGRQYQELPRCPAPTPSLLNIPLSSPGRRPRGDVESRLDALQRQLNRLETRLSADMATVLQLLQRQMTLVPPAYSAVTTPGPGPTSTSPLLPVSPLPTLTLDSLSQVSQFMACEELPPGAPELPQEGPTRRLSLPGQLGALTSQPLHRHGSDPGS
row,SMILES,"hERG current change (%, negative = inhibition) at 10uM"
1,Cc1ccc(C23CC4CC(CC(CC(=O)NC(C)(C)CO)(C4)C2)C3)cc1,11.7%
2,CC(C)CN1C(=O)C(=O)N(CC(=O)NCc2ccc3c(c2)OCO3)C1=O,10.4%
3,O=C(Nc1ccc(Cl)c(Cl)c1)Nc1ccccn1,2.95%
4,CCOC(=O)c1c(C)nc2sc(C(N)=O)c(N)c2c1-c1ccc(OC)cc1,3.47%
5,O=C1O[C@@H](c2ccc(O)cc2)Cc2cccc(O)c21,12.1%
6,Cc1cccc(OCC(O)CN2CCOCC2)c1.Cl (centres unmarked),10.9%
7,Cc1cccc(OCC(=O)Nc2ccc(C(=O)c3ccc(C(=O)O)cc3)cc2)c1,1.93%
8,CC1CCCCC1n1c(=S)[nH]c2ccccc2c1=O (centres unmarked),2.97%
9,CCN(CC)S(=O)(=O)c1cc(NS(=O)(=O)c2c(Cl)cccc2Cl)ccc1C,-33.6%
10,CCn1c(=O)cc(SCC(=O)NCCCN2CCN(c3ccccc3F)CC2)c2ccccc21,-62.2%
11,COc1cc([N+](=O)[O-])cc(/C=N/NC(=O)c2cc(C)nc3ccccc23)c1O,10.1%
12,Cc1ccccc1-c1nc(CN2CCC(C(=O)N3CCC(C(N)=O)CC3)CC2)c(C)o1,2.7%
13,COc1ccc(OCC(=O)NC(=S)Nc2ccc3c4c(cccc24)CC3)cc1,16.6%
14,Cc1[nH]c(=S)[nH]c(=O)c1Cc1ccccc1,12.7%
15,Cn1c(N)c(C(=O)COC(=O)c2cccnc2Cl)c(=O)n(C)c1=O,-8.28%
16,CCOc1ccc2c(=O)c(Oc3ccccc3)c(C)oc2c1,-6.41%
17,CN(Cc1ccon1)C(=O)C1CCN(C2CCN(CCCc3ccccc3)CC2)CC1,-34.1%
18,COc1ccc(C(=O)O)nc1C,5.78%
19,Cc1ccc(NC(=O)NCc2ccccn2)c(C)c1,13.4%
20,Cc1noc(C)c1S(=O)(=O)Nc1ccc(C(=O)N2CCN(c3cccc(Cl)c3)CC2)cc1,-4.16%
21,C#CCOCCOCCOCCNc1nc(N2CCN(C(=O)[C@H](Cc3cc4ccccc4[nH]3)n3cc([C@@H](N)C(C)CC)nn3)CC2)nc(N2CCN(C(=O)[C@H](Cc3cc4ccccc4[nH]3)n3cc([C@@H](N)CC(C)C)nn3)CC2)n1.Cl (some centres unmarked),-1.93%
22,Cn1nc([N+](=O)[O-])nc1Sc1cccc2cccnc12,13.9%

row,SMILES,"hERG current change (%, negative = inhibition) at 10uM"
1,C/C(=N\NC(=O)C1CC1)c1ccc2c(c1)OCCO2,3.37%
2,CCOc1ccc(S(=O)(=O)N2CCN(C(=O)CN3C(=O)NC(C)(C)C3=O)CC2)cc1,-12.4%
3,CC(C)c1ccc(-c2nc(N3CCCCCC3)nc3n[nH]c(N)c23)cc1,11.4%
4,CCCCNCCCOc1cc(Cl)ccc1Cl.O=C(O)C(=O)O,-54.3%
5,S=C(NCCc1ccccc1)Nc1ccc(N2CCCCC2)cc1,14.2%
6,Oc1ccc(N=Cc2ccc(O)c(O)c2)cc1,-3.33%
7,CS(=O)(=O)N1CCN(c2ccc(NC(=O)COc3ccccc3[N+](=O)[O-])cc2)CC1,1.93%
8,FC(F)(F)c1nc(-c2cccs2)ncc1-c1nnnn1-c1ccc(Cl)cc1,-8.44%
9,CCN(CC)c1c2c(c(C#N)c3nc4ccccc4n13)CCC2,-7.44%
10,Cn1c(=O)c(-c2cccc(Cl)c2)c(O)c2ccccc21,14%
11,CCOc1cc(/C=N\NC(=O)Cc2ccccc2)ccc1OCC(=O)Nc1ccc(C)c(C)c1,16.7%
12,O=C(CSC1=NS(=O)(=O)c2ccccc2N1)NCCc1ccccc1,-2.47%
13,COc1ccc(OC)c(-c2csc(NC(=O)CSc3ccc(Br)cc3)n2)c1,19%
14,COc1ccc(/C(O)=C2/C(=O)C(=O)N(c3ncccn3)C2c2ccc(F)cc2)cc1 (centres unmarked),14%
15,CC(C)(C)C1(O)CC(C(F)(F)F)=NN1C(=O)CCCc1ccccc1 (centres unmarked),0.439%
16,COC(=O)CSC1=C(C#N)C(=O)NC(c2ccccc2)S1 (centres unmarked),14.2%
17,COc1ccc(NS(=O)(=O)c2ccc3oc(=S)[nH]c3c2)cc1,20.2%
18,CCCCOC(=O)CSc1nc(N)c(C#N)c(-c2ccc(OC)cc2)c1C#N,9.13%
19,O=C(c1ccc(-n2cccc2)cc1)N1CCN(Cc2ccccc2)CC1,-81.1%
20,Cc1ccc(SCC(=O)OCC(=O)NCC2CCCCC2)cc1C,7.75%
21,COc1cc(NC(=O)c2ccccc2)c(OC)cc1NC(=O)CSc1[nH]c(=O)cc(C)c1C#N,15.7%
22,CNc1ccc(Br)cc(C(=O)/C=C/c2cccc(OC)c2)c1=O,-1.19%

# Reference: publication PMC4336329 (PLoS ONE, 2015)
